Values marked as one replicate rest on one cluster of the flow cell; about a third of the high ones do not repeat.
Test system: ATP
Experiment: switch fluorescence ratio, 500 uM ATP over buffer (Cy3 cluster intensity, sum of 5 cycles each) (fold (ratio)); higher = stronger signal-on switching upon ATP binding; sequences stand for … in TCGTCGGCAGCGTCAGATGTGTATAAGAGACAGTTTTTTTTTTTTTTTTTTTTTTTTT…TC
Conditions: aptamer strand: ATP DNA aptamer (quencher-CACCTGGGGGAGTATTGCGGAGGAAGG + anchor), 100 nM annealed; ATP concentration: 500 uM; one replicate
Procedure, shortened: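 Imaging in selection buffer was followed by imaging after 15 min with 500 uM ATP at 22 °C, for Cy3-labelled switching-strand clusters annealed to 100 nM quencher-labelled ATP aptamer on a modified Illumina MiSeq flow-cell. Five of these buffer/ATP cycles ran, separated by NaOH stripping and re-annealing. The fluorescence ratio per cluster is summed target-cycle over summed buffer-cycle Cy3 intensity, averaged per switch-domain sequence; clusters outside 100-1000 RFU were removed.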
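Also: ATP exposure 15 min at 22 °C before imaging.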

Sequence	switch fluorescence ratio
TGTTAAACCG	1.11
GTGATTATTT	1.02
GGGCTGAACA	1.01
TCTGGTGCCT	1.04
GCGTCCGGGG	1.06
AGTCCGGATG	1.03
TGGACGCTT	1.01
GCCTCTAGCG	1.08
ACGGTAGCTT	1.14
TGTCACCCTC	1.03
ATACAGATTT	1.07
AGTGAAAGGT	1.01
CGAACTCTAA	1
CTCACATCGC	1.1
AGCTCTTGCC	1.02
GCCCCCTAGG	2.66
TCTAGATGCC	1.08
GAGCAACGGT	1.08
CGGTCTTGAC	0.975
TAATTGGAAA	1.01
AGCACGAACT	1.59
TGGATACGTC	0.986
TTCAGGGCTA	1.01
GACAGACTGA	1.03
ACGGGCGCAA	1.34
ACAGAGCAAA	1.05

Sequence	switch fluorescence ratio
AAGTCTTATG	1.01
TGTTAGAGAT	0.966
GTCGTACAAG	0.98
TCCACAATAT	5.34
GCGGTTCCGA	0.979
AAGTCCTATA	0.997
TGAGGTTCCA	1.01
ATGACCCCGC	1.28
AGATAGAGGG	1.01
AGGCACTGGT	1.05
GTGGGTCTTA	1.01
TCCGTTGTCT	1.06
GGATGTGTCA	1
CACTTATCTG	0.984
TATTAACGCT	0.998
CGCACGACGA	1.52
CTGATTCACG	1.03
ATCGGTACCC	1.02
TATTTAACCC	0.989
TTTCGCTAGA	1.01
ATTGTCGCTT	1.01
TTTAGGATGT	1
GACGCATTCT	2.78
GCGCCAGATA	1.01
TCATAAAGTA	1.01
CATCAAAACC	1.04

Sequence	switch fluorescence ratio
CACGGGTACT	1.24
GATCTATAAT	1.04
ACGCATAGAT	1.16
ATCCTGGCGG	0.985
GCGTGATAGC	1.01
ATATTCACGA	1.03
AAGATTGACT	1.03
AAAGTGTCAG	0.999
GGGAATATAT	0.888
TAAGTCCTCA	0.981
GCTCCCTTGG	1.36
GCAAGTAGTG	1.05
AGTCACCATC	0.956
CGGCACGGGG	1.01
AAATCTTAGA	0.994
GCGCTAAGTG	0.992
CGCTTTAGTA	1
TCCCGGTGTC	1.41
TATTTGCTGC	0.914
TAACGCGACA	1.22
GTCGAGTCGA	0.994
TAGATGCCAC	1.03
CTTTTAGTTC	1.05
ACCAATAACT	1.06
ATCGGGAT	1.03
CGTTTGCTT	0.971

Sequence	switch fluorescence ratio
TCTGAGATA	1.01
AGATAACAAA	1.08
ATCATAGGGC	1.24
GCGCTGTGAC	1.25
GACTCTTTAC	1.53
TAAGTAAAAG	1.02
CCCTGTTT	1.03
TAGCCACGCG	0.98
GAGTCTAGAA	0.988
AAGGATCAAC	1
AAATACAAAG	1
CGTAATTTTG	1.01
TTGACACTA	1.08
ACTCTGTGCC	1.24
AATTTCTGAC	1.12
CGGGACAATC	1.46
CAAATGACA	0.991
TTGAGCCATG	1.06
GCATGTTTGT	0.977
GTTCGCTGGA	1
ATCCGTCCCG	1.02
TGAGGAGGTA	1.04
AACGCGGGA	1.04
CCATGGTGTT	1.63
TGCTATATGC	0.964
ACGATGCAGA	1.01

Sequence	switch fluorescence ratio
ATTAGTTTGT	0.986
ATGCGCAGTC	1.21
ATGCTAGGGA	0.98
CATAATTTTG	0.963
CTTTAGGTTT	1.01
GGCATCTTG	0.977
ATGAGGCGTC	1.07
GAAAGGTCG	0.993
ATATACCAGT	1.08
GCTGCGTCAT	1.03
ATGTGGGCCC	1.02
CACTGGTACA	1.17
AACCGACAAG	1.29
GGGGTCAAAT	0.991
AGGAGACGAG	1
CGCGGCAGTC	1.11
TAGGATAGCC	0.981
ATGATGCGAG	0.963
AGGGTCTGCC	1.01
CAAACTACCC	1.23
AACAAATTTA	0.94
GAGCAGGCTG	0.975
TCCAGCGAAG	1.07
TGCAGTGAAC	0.994
CGTGCTGTTC	0.952
TTGTGCTT	0.967

Sequence	switch fluorescence ratio
AGGTACCTTT	0.946
GTTGTATAGT	0.964
TGGAGCGCAG	1.02
CGACGGGATA	5.57
CATGTTCACG	1.04
GTCTAATGCA	0.992
TTACTATATA	1.09
TGGGTTCAGT	0.992
CGAGAAGGCA	0.967
GTGTGTGTAC	1.03
TCGCTCATTC	1.27
ATCATTATTC	0.956
TTTAGAAGCC	0.986
AAGAATGACA	1.04
GCCACGGCGG	1.03
ACAATGTACC	1.15
TCCGTGGGGT	0.978
TCGAAGTTGG	1
GGATCATTAC	0.987
GAATTAGCGA	1.07
GTCTGGGTAT	0.968
GGGTTAGGT	1
TACTACGGGA	1.09
GTGGCAACCC	0.98
ATGGTAGTCA	1.01
TAGTGGTCGC	1

Sequence	switch fluorescence ratio
TGACGACTAT	1.16
GCTGTGCTGT	0.968
TCGCGCTTCT	1.04
GGAGAGGTT	1.06
GATGTTGAAA	0.989
GGGGGCGATG	1.04
GCATCTCTCA	1.04
ACTCGTGCGG	0.97
TGTATTGTGC	0.97
TGGTTCCTAC	3.16
GTAGAAGTTC	1.02
TCTAACGGGT	0.993
ATATAATGCG	0.994
TTGAGTTAGG	0.945
TTGGGTTCAG	0.958
AAGGCATTGG	0.997
ATGTCGCAGG	0.952
GCCTTTCAAA	0.952
GGATCTTCCG	1.08
TACGAGCATG	1.21
CACCAGCACG	1.16
CGTAGAGGTT	1
CGCTTCCCTT	1.14
TTCGGTACCA	1.09
AGAGCTTTTC	1
AGAACAAGTA	1.01

Sequence	switch fluorescence ratio
TAGTTGTGG	0.98
GTTGTGCTTA	0.948
CCATTATGTC	0.956
AAGTAT	1.01
CCTTGGAGGG	0.975
GATCCTATTC	1.04
CGCCCTGGT	1.53
CATCGAGTGC	1.04
GCCTTCGCGT	1.45
ATTCCGTCGT	1.08
AGGCGTGGCG	0.918
GATGGTGTT	1
TGATGCAAC	1.41
AATCACTGGT	1.02
CTCGGTACAG	0.993
AAGCTTTCTT	1.03
GGACTCACGA	1.32
GAATCCATAA	0.987
GCGGTGCGAA	1.02
